Measurements: publication PMC10010621, “ATP binding by an F1Fo ATP synthase ε subunit is pH dependent, suggesting a diversity of ε subunit functional regulation in bacteria” (Frontiers in Molecular Biosciences, 2023)
pKd: −log10 of the molar value. Read-outs that look alike come from different tables or passages of the source.

Legend:
[1] = tested on: C. thermarum ε6A mutant ε subunit (εR116A, εH117A, εK118A, εR119A, εR123A, εR127A; εK109C, Cy3-labelled); assay: ATP binding assay (Cy3 maleimide fluorescence), ε6A mutant ε subunit; design: species or system Caldalkalibacillus thermarum TA2.A1; conditions: any pH tested (7.0, 7.5, 8.0, 8.5)
Procedure: The C. thermarum ε subunits were labeled as decribed previously in Krah et al., 2021 ([Krah et al., 2021]). Both ε subunit samples were desalted with a PD Minitrap™ G-25 (GE Healthcare) equilibrated with 50 mM HEPES-NaOH (pH 6.5) and 100 mM NaCl. TCEP was added in a 5:1 protein molar ratio to the ε subunit samples and they were incubated for 2 h at 25°C. Cy3 maleimide in dimethylsulfoxide (DMSO) was then added in a 5:1 dye to protein molar ratio and the mixture incubated for a further 2 h at 25°C. temperature. Excess dye was removed with the same centrifuge column equilibrated with 50 mM HEPES-KOH (pH 7.5), 100 mM KCl, 10 mM MgCl2. Labeling was subsequently analyzed by SDS-PAGE and Cy3 maleimide labeling detected by imaging the unstained gel with an Amersham Typhoon Imaging System (GE Healthcare). […]
ATP binding was detected via fluorescence using a Synergy 2 Microplate Reader (Biotek). Cy3 maleimide fluorescence was measured at 22°C during ATP binding to either C. thermarum ε subunit or the ε6A variant, in a system with an excitation filter of 530 nm (25 nm bandwidth) and an emission filter at 590 nm (35 nm bandwidth). […] Fluorescence was measured for 30–60 s at 1.66 Hz followed by an injection of concentrated 5 µL ATP in the same buffer. […] Fluorescence was measured over the course of the experimental observation window for 6 min at 1.66 Hz.

[2] = target: C. thermarum ε subunit (WT, εK109C, Cy3-labelled) (Caldalkalibacillus thermarum, UniProt F5LA71, K109C); type: binding, Caldalkalibacillus thermarum TA2.A1; conditions: for pKd: Kd (ATP binding), equimolar Mg2+, .4 μM Cy3-labelled ε subunit, hyperbolic 1-site fitting, 22°C
Procedure: The C. thermarum ε subunits were labeled as decribed previously in Krah et al., 2021 ([Krah et al., 2021]). Both ε subunit samples were desalted with a PD Minitrap™ G-25 (GE Healthcare) equilibrated with 50 mM HEPES-NaOH (pH 6.5) and 100 mM NaCl. TCEP was added in a 5:1 protein molar ratio to the ε subunit samples and they were incubated for 2 h at 25°C. Cy3 maleimide in dimethylsulfoxide (DMSO) was then added in a 5:1 dye to protein molar ratio and the mixture incubated for a further 2 h at 25°C. temperature. Excess dye was removed with the same centrifuge column equilibrated with 50 mM HEPES-KOH (pH 7.5), 100 mM KCl, 10 mM MgCl2. Labeling was subsequently analyzed by SDS-PAGE and Cy3 maleimide labeling detected by imaging the unstained gel with an Amersham Typhoon Imaging System (GE Healthcare). Gels were subsequently stained with SimplyBlue™ SafeStain (Invitrogen).
ATP binding was detected via fluorescence using a Synergy 2 Microplate Reader (Biotek). Cy3 maleimide fluorescence was measured at 22°C during ATP binding to either C. thermarum ε subunit or the ε6A variant, in a system with an excitation filter of 530 nm (25 nm bandwidth) and an emission filter at 590 nm (35 nm bandwidth). Each reaction mixture contained 800 nM labeled ε subunit in 50 mM MOPS-Tris buffer (either pH 7.0, 7.5, 8.0, 8.5), 100 mM KCl and equimolar MgCl2:ATP in a final volume of 195 µL. Fluorescence was measured for 30–60 s at 1.66 Hz followed by an injection of concentrated 5 µL ATP in the same buffer. […] Fluorescence was measured over the course of the experimental observation window for 6 min at 1.66 Hz.

Nc1ncnc2c1ncn2[C@@H]1O[C@H](COP(=O)(O)OP(=O)(O)OP(=O)(O)O)[C@@H](O)[C@H]1O [ATP]
ATP binding [1]: did not bind any measurable ATP
pKd ([2]; pH 7.0): 1.69
pKd ([2]; pH 7.5): 1.78
pKd ([2]; pH 8.0): 2.31
pKd ([2]; pH 8.5): 2.47
decrease of affinity of the ε subunit for ATP ([2]; intracellular pH drops to 7.8 (see Figure 4D)): ~40%
change of binding affinity between pH 7.0 and pH 8.5 ([2]; pH 7.0 (weakest) to pH 8.5 (strongest)): 5.9 fold
